Measured values reported in patent US20090104257A1 (priority 2007, published 2009).

Assay: Concentration of vancomycin in the lungs of infected mice (Example 9)

For `CN[C@H](CC(C)C)C(=O)N[C@H]1C(=O)N[C@@H](CC(N)=O)C(=O)N[C@H]2C(=O)N[C@H]3C(=O)N[C@H](C(=O)N[C@H](C(=O)O)c4cc(O)cc(O)c4-c4cc3ccc4O)[C@H](O)c3ccc(c(Cl)c3)Oc3cc2cc(c3O[C@@H]2O[C@H](CO)[C@@H](O)[C@H](O)[C@H]2O[C@H]2C[C@](C)(N)[C@H](O)[C@H](C)O2)Oc2ccc(cc2Cl)[C@H]1O` [Vancomycin, vancomycin], the “Vancomycin (ug/lung), individual mice” value ((6 mg/kg/day) injected IP, 4 days post therapy, 0 = below the level of detection, listed as Soluble Vancomycin) was “#0 ug/lung”, the “vancomycin in the lungs at day seven” value (IP injection of 12 mg/kg/day (FIG. 7)) was “No vancomycin was detected” and the “initial daily lung dose” value (IP, based on 4% of the delivered dose in the lungs 30 min post injection) was 15 ug of vancomycin/lung. For the same molecule, the “animals with vancomycin in lung / survivors” value (Intraperitoneal, BID × 3, 12 mg/kg/day) was 0/12 and the “vancomycin detected after IP injection” value (Six (6) hours after IP injection, Swiss Webster mice) was “no detectable vancomycin”.
